For experiment [1], the target named is Rv0204c, T18/T25 fusion (M. tuberculosis) (UniProt I6Y748). As to the kind of experiment: two-hybrid.
For experiment [2], the target named is T1, MmpL3 (full-size), T18/T25 fusion (M. tuberculosis) (UniProt P9WJV5).
T1 sequence: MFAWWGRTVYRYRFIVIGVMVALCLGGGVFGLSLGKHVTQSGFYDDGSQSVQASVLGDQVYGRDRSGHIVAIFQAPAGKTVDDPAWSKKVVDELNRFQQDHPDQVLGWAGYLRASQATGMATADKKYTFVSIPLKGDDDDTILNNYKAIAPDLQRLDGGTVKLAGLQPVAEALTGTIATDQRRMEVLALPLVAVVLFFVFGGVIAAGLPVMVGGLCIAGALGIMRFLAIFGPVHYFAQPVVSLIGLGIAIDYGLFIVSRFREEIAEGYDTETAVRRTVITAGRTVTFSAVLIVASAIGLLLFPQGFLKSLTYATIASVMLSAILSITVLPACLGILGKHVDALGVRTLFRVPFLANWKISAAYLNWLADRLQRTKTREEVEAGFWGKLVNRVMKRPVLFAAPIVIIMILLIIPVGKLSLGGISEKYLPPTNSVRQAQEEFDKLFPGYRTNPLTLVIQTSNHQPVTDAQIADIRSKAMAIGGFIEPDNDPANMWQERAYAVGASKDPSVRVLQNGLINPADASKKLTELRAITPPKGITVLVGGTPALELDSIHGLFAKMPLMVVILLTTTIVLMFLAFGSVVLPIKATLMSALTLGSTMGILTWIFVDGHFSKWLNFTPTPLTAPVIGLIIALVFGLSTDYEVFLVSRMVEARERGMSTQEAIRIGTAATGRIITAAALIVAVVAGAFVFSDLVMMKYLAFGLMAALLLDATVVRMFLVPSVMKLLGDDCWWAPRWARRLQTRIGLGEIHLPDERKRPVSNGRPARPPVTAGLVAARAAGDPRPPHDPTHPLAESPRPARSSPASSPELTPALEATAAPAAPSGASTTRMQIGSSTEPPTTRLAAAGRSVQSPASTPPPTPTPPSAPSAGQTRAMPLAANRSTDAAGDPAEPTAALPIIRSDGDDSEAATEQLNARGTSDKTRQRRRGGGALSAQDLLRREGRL
As to the kind of experiment: two-hybrid.

Experiment [3] addresses MmpL3tb^1–744, T18/T25 fusion (M. tuberculosis) (UniProt P9WJV5). Briefly: two-hybrid.
Experiment [4] has as its target Rv0227c, T18/T25 fusion (M. tuberculosis) (UniProt P96409). Briefly: two-hybrid.
The target in experiment [5] is T2, MmpL3tb-GFP tagged with hexahistidine at the C-terminal end (M. tuberculosis) (UniProt P9WJV5).
T2 sequence: T1 sequence
Briefly: cross-linking + pull-down.

For experiment [6], the target named is T2, MmpL3tb-GFP tagged with hexahistidine at the C-terminal end (M. tuberculosis). As to the kind of experiment: co-IP.
The target of experiment [7] is T3, CrgA, T18/T25 fusion (M. tuberculosis) (UniProt P9WP57).
T3 sequence: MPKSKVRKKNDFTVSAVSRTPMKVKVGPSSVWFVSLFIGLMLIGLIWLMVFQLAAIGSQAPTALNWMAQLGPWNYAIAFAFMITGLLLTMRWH
As to the kind of experiment: two-hybrid.

These are yes or no findings as the source states them, for the method shown. For some of these results: Binding seen in cells or lysates may run through a third protein. Some binding calls cover weakened binding; strength is not graded here. For some of these results: Tags and fused reporters may be left off the sequences shown.

The source of these data is paper PMC6656915, “The MmpL3 interactome reveals a complex crosstalk between cell envelope biosynthesis and cell elongation and division in mycobacteria” (Scientific Reports, 2019).

Take “MmpL11, T18/T25 fusion (from UniProt P9WJT9 1-966)”: the binding entry in experiment [1] is reported as “binds”.

Regarding “AftD (M. tuberculosis), T18/T25 fusion (from UniProt P96419 1-1400)”, the binding result in experiment [2], in experiment [3] and in experiment [4] was “binds” throughout.

B1: CrgA from M. tuberculosis H37Rv N-terminally tagged with a FLAG epitope (protein, UniProt P9WP57 1-93)
chain: T3 sequence
Consider B1, for which the binding entry in experiment [5] was “binds”.

B2: CrgA-FLAG (CrgA N-terminally tagged with a FLAG epitope) (protein, UniProt P9WP57 1-93)
chain: T3 sequence
In the case of B2, the binding result in experiment [6] is reported as “binds”.

B3: Wag31, T18/T25 fusion (protein, UniProt P9WMU1 1-260)
chain: MPLTPADVHNVAFSKPPIGKRGYNEDEVDAFLDLVENELTRLIEENSDLRQRINELDQELAAGGGAGVTPQATQAIPAYEPEPGKPAPAAVSAGMNEEQALKAARVLSLAQDTADRLTNTAKAESDKMLADARANAEQILGEARHTADATVAEARQRADAMLADAQSRSEAQLRQAQEKADALQADAERKHSEIMGTINQQRAVLEGRLEQLRTFEREYRTRLKTYLESQLEELGQRGSAAPVDSNADAGGFDQFNRGKN
Consider B3, for which the binding result in experiment [7] is on record as “binds”.
